This is one part of the list. The list includes weakly bound sequences.
These sequences were tested against T1, MBP-FoxP3dN (UniProt Q99JB6) (assay: PD-seq (MBP pull-down with sequencing)). Conditions: 20 mM Tris-HCl pH 7.5, 100 mM NaCl, 1.5 mM MgCl2, 0.4 uM protein, 0.1 uM dsDNA library, 30 min, room temperature, amylose pull-down; high values mean tight binding; double strand, one strand shown.
T1 sequence: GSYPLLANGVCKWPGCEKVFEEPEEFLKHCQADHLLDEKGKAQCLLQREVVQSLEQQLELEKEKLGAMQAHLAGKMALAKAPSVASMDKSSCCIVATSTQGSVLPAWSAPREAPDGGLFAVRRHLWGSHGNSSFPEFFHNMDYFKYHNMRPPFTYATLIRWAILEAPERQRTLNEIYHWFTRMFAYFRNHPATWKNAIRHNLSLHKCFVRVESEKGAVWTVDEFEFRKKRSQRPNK

Sequence	binding signal (RPM ratio (pull-down/input))
GATGATTGTTCTCCCAGCTGATGAATTACGAGCATCGAGTAAACAAATTTTCCTAATCTTTCTGTTCAAGCGCCATCTAC	0.816
GATGATTGTTCTCCCAGCTGATGAATTCGCTGACTCGAGTAAACAAATTTTCCTAATCTTTCTGTTCAAGCGCCATCTAC	0.961
GATGATTGTTCTCCCAGCTGATGAATTCCGTAAGTCGAGTAAACAAATTTTCCTAATCTTTCTGTTCAAGCGCCATCTAC	0.394
GATGATTGTTCTCCCAGCTGATGAATTTTACAATTCGAGTAAACAAATTTTCCTAATCTTTCTGTTCAAGCGCCATCTAC	0.31
GATGATTGTTCTCCCAGCTGATGAATTATACCCTTCGAGTAAACAAATTTTCCTAATCTTTCTGTTCAAGCGCCATCTAC	0.367
GATGATTGTTCTCCCAGCTGATGAATTCAAACCGTCGAGTAAACAAATTTTCCTAATCTTTCTGTTCAAGCGCCATCTAC	0.258
GATGATTGTTCTCCCAGCTGATGAATTATATCGTTCGAGTAAACAAATTTTCCTAATCTTTCTGTTCAAGCGCCATCTAC	1.04
GATGATTGTTCTCCCAGCTGATGAATTTGGTACATCGAGTAAACAAATTTTCCTAATCTTTCTGTTCAAGCGCCATCTAC	0.714
GATGATTGTTCTCCCAGCTGATGAATTGTTGAGGTCGAGTAAACAAATTTTCCTAATCTTTCTGTTCAAGCGCCATCTAC	0.677
GATGATTGTTCTCCCAGCTGATGAATTTGGGACGTCGAGTAAACAAATTTTCCTAATCTTTCTGTTCAAGCGCCATCTAC	0.354
GATGATTGTTCTCCCAGCTGATGAATTTCCATTCTCGAGTAAACAAATTTTCCTAATCTTTCTGTTCAAGCGCCATCTAC	0.384
GATGATTGTTCTCCCAGCTGATGAATTGGTAAAATCGAGTAAACAAATTTTCCTAATCTTTCTGTTCAAGCGCCATCTAC	0.211
GATGATTGTTCTCCCAGCTGATGAATTGGCGGGGTCGAGTAAACAAATTTTCCTAATCTTTCTGTTCAAGCGCCATCTAC	0.314
GATGATTGTTCTCCCAGCTGATGAATTAAAATGTTCGAGTAAACAAATTTTCCTAATCTTTCTGTTCAAGCGCCATCTAC	0.448
GATGATTGTTCTCCCAGCTGATGAATTTCACGTCTCGAGTAAACAAATTTTCCTAATCTTTCTGTTCAAGCGCCATCTAC	0.378
GATGATTGTTCTCCCAGCTGATGAATTAGAATCTTCGAGTAAACAAATTTTCCTAATCTTTCTGTTCAAGCGCCATCTAC	0.454
GATGATTGTTCTCCCAGCTGATGAATTACTCTAGTCGAGTAAACAAATTTTCCTAATCTTTCTGTTCAAGCGCCATCTAC	0.281
GATGATTGTTCTCCCAGCTGATGAATTATTTTACTCGAGTAAACAAATTTTCCTAATCTTTCTGTTCAAGCGCCATCTAC	0.529
GATGATTGTTCTCCCAGCTGATGAATTTTTCCCCTCGAGTAAACAAATTTTCCTAATCTTTCTGTTCAAGCGCCATCTAC	0.195
GATGATTGTTCTCCCAGCTGATGAATTCATAAGGTCGAGTAAACAAATTTTCCTAATCTTTCTGTTCAAGCGCCATCTAC	0.205
GATGATTGTTCTCCCAGCTGATGAATTACATGGATCGAGTAAACAAATTTTCCTAATCTTTCTGTTCAAGCGCCATCTAC	0.348

Sequence	binding signal (RPM ratio (pull-down/input))
GATGATTGTTCTCCCAGCTGATGAATTATATCCTTCGAGTAAACAAATTTTCCTAATCTTTCTGTTCAAGCGCCATCTAC	0.462
GATGATTGTTCTCCCAGCTGATGAATTGTAGACCTCGAGTAAACAAATTTTCCTAATCTTTCTGTTCAAGCGCCATCTAC	0.413
GATGATTGTTCTCCCAGCTGATGAATTGTTATTATCGAGTAAACAAATTTTCCTAATCTTTCTGTTCAAGCGCCATCTAC	5.54
GATGATTGTTCTCCCAGCTGATGAATTTGCACACTCGAGTAAACAAATTTTCCTAATCTTTCTGTTCAAGCGCCATCTAC	0.829
GATGATTGTTCTCCCAGCTGATGAATTACTGCGCTCGAGTAAACAAATTTTCCTAATCTTTCTGTTCAAGCGCCATCTAC	0.516
GATGATTGTTCTCCCAGCTGATGAATTTAACCCTTCGAGTAAACAAATTTTCCTAATCTTTCTGTTCAAGCGCCATCTAC	0.322
GATGATTGTTCTCCCAGCTGATGAATTGCATTACTCGAGTAAACAAATTTTCCTAATCTTTCTGTTCAAGCGCCATCTAC	2.36
GATGATTGTTCTCCCAGCTGATGAATTGTAGAAATCGAGTAAACAAATTTTCCTAATCTTTCTGTTCAAGCGCCATCTAC	0.336
GATGATTGTTCTCCCAGCTGATGAATTGCGCCGTTCGAGTAAACAAATTTTCCTAATCTTTCTGTTCAAGCGCCATCTAC	2.08
GATGATTGTTCTCCCAGCTGATGAATTTGCTGCCTCGAGTAAACAAATTTTCCTAATCTTTCTGTTCAAGCGCCATCTAC	3.66
GATGATTGTTCTCCCAGCTGATGAATTCACTGCATCGAGTAAACAAATTTTCCTAATCTTTCTGTTCAAGCGCCATCTAC	0.871
GATGATTGTTCTCCCAGCTGATGAATTGGACGAATCGAGTAAACAAATTTTCCTAATCTTTCTGTTCAAGCGCCATCTAC	0.195
GATGATTGTTCTCCCAGCTGATGAATTGAGCAATTCGAGTAAACAAATTTTCCTAATCTTTCTGTTCAAGCGCCATCTAC	3.79
GATGATTGTTCTCCCAGCTGATGAATTCTAACTCTCGAGTAAACAAATTTTCCTAATCTTTCTGTTCAAGCGCCATCTAC	0.418
GATGATTGTTCTCCCAGCTGATGAATTGCCTTGCTCGAGTAAACAAATTTTCCTAATCTTTCTGTTCAAGCGCCATCTAC	0.647
GATGATTGTTCTCCCAGCTGATGAATTATCGGCTTCGAGTAAACAAATTTTCCTAATCTTTCTGTTCAAGCGCCATCTAC	0.296
GATGATTGTTCTCCCAGCTGATGAATTACTAAGTTCGAGTAAACAAATTTTCCTAATCTTTCTGTTCAAGCGCCATCTAC	0.312
GATGATTGTTCTCCCAGCTGATGAATTACCAGGCTCGAGTAAACAAATTTTCCTAATCTTTCTGTTCAAGCGCCATCTAC	0.357
GATGATTGTTCTCCCAGCTGATGAATTTAAAGATTCGAGTAAACAAATTTTCCTAATCTTTCTGTTCAAGCGCCATCTAC	0.274
GATGATTGTTCTCCCAGCTGATGAATTTTTGTTATCGAGTAAACAAATTTTCCTAATCTTTCTGTTCAAGCGCCATCTAC	2.29
GATGATTGTTCTCCCAGCTGATGAATTGTGTGGATCGAGTAAACAAATTTTCCTAATCTTTCTGTTCAAGCGCCATCTAC	2.21

Sequence	binding signal (RPM ratio (pull-down/input))
GATGATTGTTCTCCCAGCTGATGAATTCATTCTATCGAGTAAACAAATTTTCCTAATCTTTCTGTTCAAGCGCCATCTAC	0.283
GATGATTGTTCTCCCAGCTGATGAATTCATCCTGTCGAGTAAACAAATTTTCCTAATCTTTCTGTTCAAGCGCCATCTAC	0.419
GATGATTGTTCTCCCAGCTGATGAATTCTTAACGTCGAGTAAACAAATTTTCCTAATCTTTCTGTTCAAGCGCCATCTAC	0.28
GATGATTGTTCTCCCAGCTGATGAATTACGACCATCGAGTAAACAAATTTTCCTAATCTTTCTGTTCAAGCGCCATCTAC	0.605
GATGATTGTTCTCCCAGCTGATGAATTGCTTTTGTCGAGTAAACAAATTTTCCTAATCTTTCTGTTCAAGCGCCATCTAC	1.51
GATGATTGTTCTCCCAGCTGATGAATTTGCCAGATCGAGTAAACAAATTTTCCTAATCTTTCTGTTCAAGCGCCATCTAC	0.316
GATGATTGTTCTCCCAGCTGATGAATTCGCTCATTCGAGTAAACAAATTTTCCTAATCTTTCTGTTCAAGCGCCATCTAC	0.414
GATGATTGTTCTCCCAGCTGATGAATTGGTGTCATCGAGTAAACAAATTTTCCTAATCTTTCTGTTCAAGCGCCATCTAC	1.22
GATGATTGTTCTCCCAGCTGATGAATTGATATGCTCGAGTAAACAAATTTTCCTAATCTTTCTGTTCAAGCGCCATCTAC	0.879
GATGATTGTTCTCCCAGCTGATGAATTCTGCATCTCGAGTAAACAAATTTTCCTAATCTTTCTGTTCAAGCGCCATCTAC	6.75
GATGATTGTTCTCCCAGCTGATGAATTCTTGTGGTCGAGTAAACAAATTTTCCTAATCTTTCTGTTCAAGCGCCATCTAC	0.428
GATGATTGTTCTCCCAGCTGATGAATTGCAGAAATCGAGTAAACAAATTTTCCTAATCTTTCTGTTCAAGCGCCATCTAC	0.529
GATGATTGTTCTCCCAGCTGATGAATTGTGAACCTCGAGTAAACAAATTTTCCTAATCTTTCTGTTCAAGCGCCATCTAC	0.516
GATGATTGTTCTCCCAGCTGATGAATTAGGCGATTCGAGTAAACAAATTTTCCTAATCTTTCTGTTCAAGCGCCATCTAC	1.08
GATGATTGTTCTCCCAGCTGATGAATTAGAGAGGTCGAGTAAACAAATTTTCCTAATCTTTCTGTTCAAGCGCCATCTAC	0.206
GATGATTGTTCTCCCAGCTGATGAATTCCTAGGCTCGAGTAAACAAATTTTCCTAATCTTTCTGTTCAAGCGCCATCTAC	0.188
GATGATTGTTCTCCCAGCTGATGAATTAAAGATATCGAGTAAACAAATTTTCCTAATCTTTCTGTTCAAGCGCCATCTAC	0.318
GATGATTGTTCTCCCAGCTGATGAATTACGATATTCGAGTAAACAAATTTTCCTAATCTTTCTGTTCAAGCGCCATCTAC	1.07
GATGATTGTTCTCCCAGCTGATGAATTTGTGTTGTCGAGTAAACAAATTTTCCTAATCTTTCTGTTCAAGCGCCATCTAC	6.27
GATGATTGTTCTCCCAGCTGATGAATTCTCAGACTCGAGTAAACAAATTTTCCTAATCTTTCTGTTCAAGCGCCATCTAC	0.193
GATGATTGTTCTCCCAGCTGATGAATTAAATCACTCGAGTAAACAAATTTTCCTAATCTTTCTGTTCAAGCGCCATCTAC	0.508
